# Assay results: PubChem BioAssay AID686971 (National Center for Advancing Translational Sciences (NCATS), 2013)
# Among all 360,000 compounds or so, about 7,500 (2.1%) were called active. This list was built around the results that the source calls inconclusive (neither active nor inactive); the mix of calls is not that of the screen. Calls follow the shape of the dose curve; as a rule, active = well fitted cell-killing curve with a large enough effect; inconclusive = small, poorly fitted or top-dose-only effect, or effect the other way, or another doubt; inactive = no such curve, though single readings can be large or run the other way. No potency is given beside an inconclusive call; the fits are too rough.
# Assay: qHTS for induction of synthetic lethality in tumor cells producing 2HG: qHTS for the HT-1080-IDH1KD cell line;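 as to activity, negative = toxicity: 0% = DMSO wells and -100% = cell-free medium wells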
# Conditions: HT-1080 IDH1 knockdown viability, ATP luminescence, 48 h; activity, negative = toxicity: at 46.1 µM (top of the series) unless noted
# Outline: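 HT-1080-IDH1KD cells (IDH1 knocked down), 750/well in RPMI with 5% FBS, treated with compound 48 h at 37 degrees C. Viability by CellTiter-Glo luminescence, normalised to DMSO and no-cell wells; concentration-response curves classed.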
# Potency is read from the fitted curve at half-maximal effect; tags tell the direction and shape of the fitted curve.
Structure (SMILES),Potency,"activity, negative = toxicity"
CCOC1=C2CN(S(=O)(=O)c3ccccc3)[C@H](c3ccccc3)C[C@H]2n2c(=O)n(-c3ccccc3)c(=O)n2C1,"inconclusive [rising, partial curve]",
COc1ccc(CC2=CC(=O)c3ccccc3C2=O)cc1,"inconclusive [cytotoxic, single point]",
CCCCCCCCN1C(=O)[C@H](CC(=O)NCc2cccc(C(F)(F)F)c2)C[C@@]2(C(=O)OCC)CCC=C12,"inconclusive [cytotoxic, single point]",
C[C@@H](NC(=O)c1nc[nH]c1C(=O)NCc1ccccc1)c1ccccc1,inactive,
Cc1ccnc(NC(c2ccsc2)c2ccc3ccc(C)nc3c2O)c1 (configuration not stated),active: 14.6 µM,
C=CCN1C(=O)/C(=C/C(=O)OC)S/C1=N\NC(=O)c1ccccc1,"inconclusive [cytotoxic, single point]",
CSc1ccc(-c2cc(=O)c3ccccc3o2)cc1,"inconclusive [cytotoxic, partial curve]",
NC(=NC(=O)c1ccc(OC(F)(F)F)cc1)c1ccc(C(F)(F)F)cn1,"inconclusive [rising, partial curve]",
COc1cccc(Cn2cnc3c(sc4nc(C)cc(C)c43)c2=O)c1,inactive,
Cc1nc(SCC(=O)Nc2nc3ccccc3s2)c(C#N)c(C)c1C,"inconclusive [cytotoxic, single point]",
CCCCn1nnnc1C(c1ccccc1)N1CCN(CCN2CCOCC2)CC1 (configuration not stated),inactive,
COC(=O)[C@]1(Cc2ccccc2)N[C@H](c2ccc(-c3ccccc3)cc2)[C@@H]2C(=O)N(C)C(=O)[C@@H]21,"inconclusive [cytotoxic, single point]",
CCCCCC(=O)Nc1ccc(C(=O)N/N=C/c2ccc([N+](=O)[O-])cc2)cc1,"inconclusive [cytotoxic, partial curve, poor fit]",
Cc1cc(C)cc(NC(=O)CCn2c(=O)c3cccn3c3ccccc32)c1,"inconclusive [cytotoxic, single point]",
Cc1cccc(C2c3c(n(C)c(=O)n(C)c3=O)N=C3c4ccccc4C(=O)C32)c1 (configuration not stated),"inconclusive [cytotoxic, single point]",
C/C=C/c1cccc(-c2nc(C(=O)NC3Cc4ccccc4C3)cc3c2[C@@H](CCO)N(C(C)=O)C3)c1,"inconclusive [cytotoxic, partial curve]",
COc1cccc(C2CC(c3c(-c4ccccc4)c4cc(Cl)ccc4[nH]c3=O)=NN2S(C)(=O)=O)c1OC (configuration not stated),active: 18.4 µM,
CC1(C)Cc2nc3sc4c(SCC(=O)NCc5ccco5)ncnc4c3cc2CO1,active: 2.59 µM,
O=C(Nc1ccc([N+](=O)[O-])cc1)C1CC1(c1ccccc1)c1ccccc1 (configuration not stated),,inconclusive: -26.4% [cytotoxic]
S=C(NCCCN1CCOCC1)NN=C1c2ccccc2-c2ccccc21,"inconclusive [cytotoxic, single point]",
COc1ccc2c(c1)sc1nc(-c3ccccc3)cn12,active: 4.61 µM,
COC(=O)C(Cc1csc2ccc(Cl)cc12)NC(=O)c1ccc(Cl)cc1 (configuration not stated),inactive,
COc1ccc(NC(=O)c2cc(-c3ccco3)nc3ccccc23)cc1,"inconclusive [cytotoxic, single point]",

Structure (SMILES),Potency,"activity, negative = toxicity"
CC(=O)NCCc1c(C)n(Cc2ccccc2)c2ccccc12,inactive,
COc1ccc(-c2c(-c3ccc(O)cc3O)n[nH]c2C(F)(F)F)cc1,"inconclusive [cytotoxic, single point]",
Cc1cc(C)nc(/N=C(/NC(=O)Nc2ccc(Cl)c(Cl)c2)Nc2cccc(Cl)c2)n1,"inconclusive [rising, single point]",
COc1ccccc1NC(=O)CNc1ccc(F)c(Cl)c1,"inconclusive [cytotoxic, partial curve]",
O=C(c1ccc(Cl)c(Cl)c1)c1cc(-c2ccccn2)c(N2CCOCC2)s1,inactive,
COc1cc(C(C)=O)ccc1COc1ccc(C(=O)O)cc1OC,inactive,
Cc1ccc(N(Cc2ccc(C(=O)NN=C3CCN(C)CC3)cc2)S(C)(=O)=O)cc1C,inactive,
CC(=O)C1=C(C)Nc2ncnn2C1c1ccccc1Cl (configuration not stated),"inconclusive [rising, partial curve]",
CC(=O)NC(c1ccccc1)c1nc(-c2ccc(C)c(C)c2)cs1 (configuration not stated),"inconclusive [cytotoxic, single point]",
COc1ccc(CN2C(=O)C(CC(=O)NCc3cccc4ccccc34)CC(C(=O)N(C(C)C)C(C)C)=C2C)cc1 (configuration not stated),"inconclusive [cytotoxic, single point]",
Cc1ccc(NC(=O)c2ccc(Nc3c([N+](=O)[O-])cc([N+](=O)[O-])cc3[N+](=O)[O-])cc2)cc1,"inconclusive [cytotoxic, single point]",
CCOc1ccc(CCN2C(=O)C(=O)N([C@@H](CC(C)C)CN3CCC[C@H]3CN3C(=O)C(=O)NC[C@@H]3Cc3ccc(O)cc3)C[C@@H]2CC(C)C)cc1,"inconclusive [cytotoxic, single point]",
Cc1ccc(C(=S)NCS(=O)(=O)c2ccc(C)cc2)cc1,"inconclusive [cytotoxic, single point]",
C1CN(c2nc(N3CCOCC3)nc(N3CCOCC3)n2)CCO1,inactive,
CCOC1CCCC(n2cnc3c(=S)nc[nH]c32)O1 (configuration not stated),"inconclusive [cytotoxic, partial curve]",
COc1cc(C(=O)C(=O)N2CCN(c3ccccc3)CC2)cc(OC)c1OC,active: 7.31 µM,
OC(c1ccc(F)cc1)c1nc(/C=C/c2ccccc2)cs1 (configuration not stated),"inconclusive [cytotoxic, single point]",
C/C(N)=C(/C#N)C(=O)CSc1nc(-c2ccccc2)c(-c2ccccc2)o1,"inconclusive [cytotoxic, single point]",
CCOc1ccccc1C1CC(=O)NC2=C1C(=O)CCC2 (configuration not stated),active: 23.1 µM,
CCCCNC(=O)c1[nH]c(C2CCNCC2)nc1-c1cccc(C(F)(F)F)c1,"inconclusive [cytotoxic, single point]",
O=c1oc2c(-c3ccc([N+](=O)[O-])cc3)cc(O)cc2s1,inactive,
O=C(CCc1ccccc1)Nc1cccnc1Cl,"inconclusive [rising, partial curve, poor fit]",
CC(=O)OCC(=O)C1(O)CCC2C3CCC4=CC(=O)CCC4(C)C3(F)C(O)CC21C (configuration not stated),"inconclusive [rising, partial curve]",

Structure (SMILES),Potency,"activity, negative = toxicity"
COc1cccc(-c2c3c([nH]c(=O)c2C#N)CCc2cc(OC)ccc2-3)c1,inactive,
COc1cccc(O)c1CN1CCC(C(=O)Nc2ccc(Oc3cccnc3)cc2)CC1,inactive,
O=S(=O)(NNc1ncc(C(F)(F)F)cc1Cl)c1ccccc1,"inconclusive [cytotoxic, single point]",
COc1ccc(Nc2nc(Nc3ccc(OC)cc3)nc(-n3[nH]c(=O)c(C)c3C)n2)cc1,"inconclusive [cytotoxic, single point]",
NC(c1ccccc1)c1csc(Nc2cc(Oc3ccccc3)ncn2)n1 (configuration not stated),"inconclusive [cytotoxic, single point]",
O=C(/C=C/c1ccccc1)CC(O)(c1ccccc1)C(F)(F)C(F)F (configuration not stated),active: 12.6 µM,
CC(C)c1ccc(C2(C)NC(=O)N(CC(=O)N3CCN(C(=O)c4cccs4)CC3)C2=O)cc1 (configuration not stated),inactive,
O=C(CNC(=S)N(Cc1ccccc1)Cc1ccccc1F)NCCc1ccccc1,"inconclusive [cytotoxic, single point]",
N#Cc1nc(Cc2cccc3ccccc23)oc1NCc1ccc(F)cc1,"inconclusive [cytotoxic, partial curve]",
C#CCOC(=O)C[N+](C)(C)CC#Cc1ccccc1,inactive,
O=C(Nc1cc(Cl)cc(Cl)c1)N1CCCN(Cc2ccccc2)CC1,"inconclusive [cytotoxic, single point]",
CCN(CC)C(=O)c1oc2ccc(S(=O)(=O)N3CC(C)CC(C)C3)cc2c1C (configuration not stated),"inconclusive [cytotoxic, partial curve]",
OC(c1ccccc1)(C1CCCCC1)C(CN1CCOCC1)c1ccccc1 (configuration not stated),"inconclusive [cytotoxic, single point]",
C#CCOCCOCCOCCNc1nc(N2CCN(C(=O)[C@H]([C@@H](C)CC)n3cc(CCCN=C(N)N)nn3)CC2)nc(N2CCN(C(=O)[C@H]([C@@H](C)CC)n3cc(CCC(=O)O)nn3)CC2)n1,inactive,
OC(CN1CCN(c2cccc(Cl)c2)CC1)C(c1ccccc1)c1ccccc1 (configuration not stated),"inconclusive [cytotoxic, single point]",
CCOC(=O)c1cnc(-n2nc(C)cc2C)nc1NNc1nc(C)cc(C)n1,inactive,
O=C(COc1ccccc1[N+](=O)[O-])c1ccccc1,"inconclusive [cytotoxic, single point]",
CCOC(=O)CSc1nc2ccc(S(=O)(=O)N3CCOCC3)cc2[nH]1,inactive,
CCOC(=O)N1CCN(C(=O)C[C@@H]2C[C@@]3(C(=O)OC)CCCCC=C3N(CCc3ccc(OC)c(OC)c3)C2=O)CC1,inactive,
COCOCCn1cc(CN2CCS(=O)(=O)N(Cc3ccc(-c4ccc(C)cc4)cc3)C(CC(C)C)C2=O)nn1 (configuration not stated),inactive,
Cc1ccc(-c2nc(COC(=O)c3c(C)noc3C)cs2)cc1,"inconclusive [cytotoxic, single point]",
